Data published in article PMC8694192, “Synthesis and biological evaluation of new derivatives of thieno-thiazole and dihydrothiazolo-thiazole scaffolds integrated with a pyrazoline nucleus as anticancer and multi-targeting kinase inhibitors” (RSC Advances, 2021).

System: MCF-7 cells
Assay: DNA-flow cytometric cell cycle analysis (PI staining)
Assay type: cell-based, human
Conditions: MCF-7, 24 h
Procedure: More details in the ESI. ^†
DMSO was utilized as a negative control. The stages of cell cycle were being detected via flow cytometry after propidium iodide (PI) staining followed by RNAse treatment.[63] In this experiment, MCF-7 cells were incubated with a concentration of 4.021 μM for compound 1 and with 8.35 μM for compound 3c for 24 h. The flow cytometry approach was used to quantify cell populations at various stages of the cell cycle (pre-G1, G1, S and G2/M phases).
screening of final compounds.
using 1 μM concentration of ATP.
1.2.4. Annexin V-FITC apoptosis assay
Briefly, cells were seeded

[1] = 4.021 μM for compound 1, 8.35 μM for 3c

Compound | percentage of cells at S phase [1] | cell cycle arrest phase (at IC50 concentration) | percentage of cells at pre-G1 [1]
Cc1c(NC2=NC(=O)CS2)c(=O)n(-c2ccccc2)n1C [Compound 1, 2-((1,5-Dimethyl-3-oxo-2-phenyl-2,3-dihydro-1H-pyrazol-4-yl)amino)thiazol-4(5H)-one] | 24.11% | G2/M phase | 
Cc1c(Nc2nc3c(C(=O)NN)c(N)sc3s2)c(=O)n(-c2ccccc2)n1C [Compound 3c, 5-Amino-2-((1,5-dimethyl-3-oxo-2-phenyl-2,3-dihydro-1H-pyrazol-4-yl)amino) thieno[3,2-d]thiazole-6-carbohydrazide] |  |  | 19.62%
